Out of some 310,000 compounds screened, about 2,200 (0.71%) showed an effect of 50% or more. Effects have a minus sign here. This is one part of the list.

Sequence of human ether-à-go-go-related gene (hERG) potassium channel (Q12809 whole entry, looked up): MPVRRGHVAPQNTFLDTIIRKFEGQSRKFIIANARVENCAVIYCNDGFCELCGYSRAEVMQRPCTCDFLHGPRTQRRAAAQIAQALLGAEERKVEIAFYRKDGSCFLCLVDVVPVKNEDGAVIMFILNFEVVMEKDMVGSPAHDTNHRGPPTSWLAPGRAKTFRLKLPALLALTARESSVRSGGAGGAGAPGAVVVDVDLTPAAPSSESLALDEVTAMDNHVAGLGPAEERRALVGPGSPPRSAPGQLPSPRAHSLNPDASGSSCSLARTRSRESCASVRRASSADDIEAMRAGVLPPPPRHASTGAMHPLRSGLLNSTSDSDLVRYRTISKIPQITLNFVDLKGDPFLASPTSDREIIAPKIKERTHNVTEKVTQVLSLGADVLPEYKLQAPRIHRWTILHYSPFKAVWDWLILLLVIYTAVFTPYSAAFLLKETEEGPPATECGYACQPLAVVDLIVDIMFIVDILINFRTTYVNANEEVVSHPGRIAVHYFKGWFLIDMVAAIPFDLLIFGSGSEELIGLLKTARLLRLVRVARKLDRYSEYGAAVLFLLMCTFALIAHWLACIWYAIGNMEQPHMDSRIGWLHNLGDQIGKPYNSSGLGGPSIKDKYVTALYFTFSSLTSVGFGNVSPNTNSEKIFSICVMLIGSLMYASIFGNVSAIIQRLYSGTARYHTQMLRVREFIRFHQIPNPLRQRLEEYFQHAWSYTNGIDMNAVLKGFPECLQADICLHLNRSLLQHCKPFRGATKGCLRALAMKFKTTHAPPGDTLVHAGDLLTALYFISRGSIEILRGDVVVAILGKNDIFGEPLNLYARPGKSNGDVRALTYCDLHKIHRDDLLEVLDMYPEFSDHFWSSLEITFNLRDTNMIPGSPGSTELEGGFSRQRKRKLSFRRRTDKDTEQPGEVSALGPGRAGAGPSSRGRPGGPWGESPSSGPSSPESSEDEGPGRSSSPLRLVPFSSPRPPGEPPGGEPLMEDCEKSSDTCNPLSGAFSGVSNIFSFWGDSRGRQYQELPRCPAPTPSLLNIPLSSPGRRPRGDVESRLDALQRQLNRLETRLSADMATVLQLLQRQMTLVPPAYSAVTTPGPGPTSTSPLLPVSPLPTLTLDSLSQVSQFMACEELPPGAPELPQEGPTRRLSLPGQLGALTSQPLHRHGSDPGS

This experiment concerns the target human ether-à-go-go-related gene (hERG) potassium channel (human, UniProt Q12809). The experiment can be described thus: primary screen, population patch clamp on CHO cells stably expressing hERG.
With `COC(=O)CSC1=C(C#N)C(c2ccc(C)cc2)C2=C(CCCC2=O)N1` (centres unmarked), the “hERG current change (%, negative = inhibition) at 1uM” value is reported as -2.79%. For `Cc1nc2nc(C)c(CCC(=O)NCCCN3CCN(c4cccc(Cl)c4)CC3)c(C)n2n1` the value was 14.8%. Take `COc1ccc(-c2ccc([C@H]3[C@H]4C=CC[C@@H](C)[C@@H]4C(=O)N3Cc3ccccc3)c(F)c2)cc1C`: the “hERG current change (%, negative = inhibition) at 1uM” value was 12.4%. In the case of `O=C(N/N=C/c1cccc(F)c1)c1c(O)c2c([nH]c1=O)CCCC2` it was -2.39%. For `CCOC(=O)N1CCN(C(=O)c2ccc(C#CC3(O)CCCCC3)cc2)CC1` the value was 1.27%. Take `CN(C)S(=O)(=O)c1ccc2oc(SCC(=O)c3c(N)n(C4CC4)c(=O)[nH]c3=O)nc2c1`: the “hERG current change (%, negative = inhibition) at 1uM” value stood at 13%. In the case of `CC[C@]1(O)C[C@@H]2CN(CCc3c([nH]c4ccccc34)[C@@](C(=O)OC)(c3cc4c(cc3OC)N(C=O)[C@H]3[C@@](O)(C(=O)OC)[C@H](OC(C)=O)[C@]5(CC)C=CCN6CC[C@]43[C@@H]65)C2)C1.O=S(=O)(O)O`, the “hERG current change (%, negative = inhibition) at 1uM” value is on record as 16.1%. For `O=C(COC(=O)CCC1CCCCC1)Nc1ccc(OC(F)F)cc1` the value was 8.65%.

`CCN(Cc1cc2cc(C)ccc2[nH]c1=O)S(=O)(=O)c1ccccc1`: the “hERG current change (%, negative = inhibition) at 1uM” value is on record as 4.31%. On to `O=S(=O)(c1ccc(F)cc1)N1CCN(c2ccccc2)CC1`, for which the “hERG current change (%, negative = inhibition) at 1uM” value is 3.7%. On to `CCN1CCC(N2CCN(c3ccc(F)cc3)CC2)CC1`, for which the “hERG current change (%, negative = inhibition) at 1uM” value amounted to 10.6%. For `Cc1ccc(S(=O)(=O)CC(=O)c2ccccc2)cc1` the value was 4.09%; for `CCCc1cc(=O)[nH]c(SCc2cc(Cl)ccc2OC(F)F)n1`, -6.63%; for `COc1ccc(C2c3sc(=O)[nH]c3SC3C4CCC(C4)C23)cc1` (centres unmarked), 0.607%. For `Cc1cc(NC(=O)c2c(F)c(F)c(F)c(F)c2F)no1` the value was -8.09%; for `O=C(CSc1cccc2cccnc12)N/N=C/c1ccc(F)cc1`, 8.21%; for `CCc1ccc(-c2nn(Cc3ccccc3)cc2C(=O)NCC2CCCO2)cc1` (centres unmarked), 8.4%. For `O=C(NCCO)C1(c2ccc(Cl)cc2)CCCC1`, the “hERG current change (%, negative = inhibition) at 1uM” value amounted to 6.57%. In the case of `O=c1oc2ccccc2c(Nc2ccc(O)cc2)c1[N+](=O)[O-]` it was 4.44%; in that of `CCOn1c(-n2nc(C)cc2C)nc2ccccc2c1=O`, 11%. In the case of `O=C1C2CC=CCC2C(=O)N1Nc1ccccc1` (centres unmarked), the “hERG current change (%, negative = inhibition) at 1uM” value was 13.3%. `CCOc1ccccc1NC(=O)C1C2CCC(O2)C1C(=O)O` (centres unmarked): the “hERG current change (%, negative = inhibition) at 1uM” value was 16.8%. For `O=C(c1cc2ccccc2oc1=O)N1CCCCCCC1` the value was 13.7%; for `CCn1cc(C(=O)NCc2ccco2)c(=O)c2cc(S(=O)(=O)N3CCc4ccccc4C3)ccc21`, -0.558%. For `CCOc1ccc(NC(=O)CN(C)C(=O)Cc2ccsc2)cc1OCC` the value was 1.2%; for `Cc1cc(NC(=O)c2c(Br)c(C)nn2C)no1`, 8.15%; for `CC(C)CNC(=O)C(=O)NCC(c1ccc2c(c1)OCO2)N1CCOCC1` (centres unmarked), 12.8%.

Turning to `O=C(CNC(=S)NC(=O)c1cccc([N+](=O)[O-])c1)c1ccccc1`, the “hERG current change (%, negative = inhibition) at 1uM” value is reported as 1.25%. In the case of `CCC(=O)Oc1ccc(NC(=O)c2ccco2)cc1` it was 2.83%; in that of `Cc1cc(C)n(C(=O)c2ccc(C)o2)n1`, -0.671%; in that of `CCOP(=O)(OCC)C(NC(=O)c1ccc(OC)cc1)c1ccccc1` (centres unmarked), 11.3%. For `COC(=O)Cn1c(-c2ccc(OC)cc2)c(-c2ccc(OC)cc2)nnc1=O` the value was 5.49%.

Regarding `S=c1[nH]nc(COc2ccc(Cl)cc2)n1Cc1ccccc1`, the “hERG current change (%, negative = inhibition) at 1uM” value is on record as -1.58%. In the case of `COc1cccc(NC(=O)C(OC(=O)/C=C/c2ccc3c(c2)OCO3)c2ccccc2)c1` (centres unmarked) it was -4.59%. As to `CN(C)S(=O)(=O)c1cccc(NC(=O)c2cc(=O)[nH]c(=O)[nH]2)c1`, the “hERG current change (%, negative = inhibition) at 1uM” value was found to be 16.6%. For `CNCC(O)Cn1c2c(c3ccccc31)CCCC2` (centres unmarked) the value was 5.22%. In the case of `O=S(=O)(c1cccs1)N1CN(Cc2ccco2)c2nc3ccccc3nc21` it was 5.05%; in that of `COC(=O)C(Oc1ccc2c(-c3ccc(OC)cc3)cc(=O)oc2c1)c1ccccc1` (centres unmarked), 0.842%. As to `Cc1ccc(NC(=O)C2C3CC4OC(=O)C2C4C3)cc1Cl` (centres unmarked), the “hERG current change (%, negative = inhibition) at 1uM” value is given as 0.412%. As to `C/C(CC(=O)Nc1cccc(Cl)c1Cl)=N\NC(=O)c1ccccc1N`, the “hERG current change (%, negative = inhibition) at 1uM” value was 14.1%. In the case of `O=C(O)c1cccc2c1C(=O)N(Cc1ccncc1)C2` it was 15.7%; in that of `Cc1ccc(NC(=O)C(C)Sc2n[nH]c(CNc3ccccc3)n2)cc1` (centres unmarked), 11.9%; in that of `CCC(=O)NC(=S)Nc1ccc(NC(=O)CC)cc1`, 0.36%.

`Cc1cc(C)nc(NC(=NCc2ccc3c(c2)OCO3)NC(=O)Nc2ccccc2)n1`: the “hERG current change (%, negative = inhibition) at 1uM” value is -4.02%. For `Cn1c(SCC(=O)Nc2ccccc2Br)nnc1-c1cnccn1` the value was 12.9%; for `Oc1ccc2n[nH]nc2c1`, 12.2%. As for `COc1cccc(N2CCN(S(=O)(=O)c3ccc4c(c3)CC(C)N4C(=O)C3CC3)CC2)c1` (centres unmarked), the “hERG current change (%, negative = inhibition) at 1uM” value is recorded as 14.3%.

In the case of `Cn1c(NC(=O)c2ccccc2F)c(-c2cccs2)c(=O)c2ccccc21`, the “hERG current change (%, negative = inhibition) at 1uM” value is recorded as -9.32%. Turning to `Oc1c(I)cc(I)c2cccnc12`, the “hERG current change (%, negative = inhibition) at 1uM” value worked out at 3.38%. As to `Cc1cccc(/N=C/c2c(O)cc(C)oc2=O)n1`, the “hERG current change (%, negative = inhibition) at 1uM” value amounted to 8.84%.

Consider `Cc1cccc(N(CC(=O)NC(C)C)C(=O)CCC(=O)Nc2ccccn2)c1`, for which the “hERG current change (%, negative = inhibition) at 1uM” value is recorded as 7.08%. For the compound `CC(C)(C)NC(=O)C(Cc1ccccc1)NS(=O)(=O)c1cccc2nsnc12` (centres unmarked), the “hERG current change (%, negative = inhibition) at 1uM” value is listed as 9.43%. For `Cc1cc(N2CCN(C)CC2)nc2ccc(NC(=S)NCCN3CCc4ccccc4C3)cc12` the value was -4.66%; for `CC1(C)Cc2c(sc3nc(SCC(=O)NCc4ccco4)n(-c4ccccc4)c(=O)c23)CS1`, 13.1%; for `COc1ccc(S(=O)(=O)CC(=O)Nc2nnc(C(F)(F)F)s2)cc1`, 1.56%. With `CNc1nc(SCc2ccccc2Cl)nc2c1CCCC2`, the “hERG current change (%, negative = inhibition) at 1uM” value is listed as 7.73%. In the case of `O=C(COC(=O)c1cccnc1)Nc1cccc(Cl)c1` it was 12.9%.

With `CCOC(=O)c1ccc(-c2ccc(/C=N/NC(=O)CN(c3ccccc3Br)S(C)(=O)=O)o2)cc1`, the “hERG current change (%, negative = inhibition) at 1uM” value came out at 9.67%. For `Cc1cc(OC(=O)c2ccccc2Br)c([N+](=O)[O-])c(=O)[nH]1` the value was 8.61%; for `CNS(=O)(=O)c1cnccc1N1CCN(C)CC1`, 9.03%.

In the case of `Cc1cc(NC(=O)CSc2nc(Cc3ccccc3)c(C)[nH]2)no1`, the “hERG current change (%, negative = inhibition) at 1uM” value worked out at 10.8%. As to `Cc1ccc(C(=O)Cc2nc3ccccc3[nH]2)cc1`, the “hERG current change (%, negative = inhibition) at 1uM” value was 11.8%.

Take `CSc1ccc(C2C(C#N)=C(N)Oc3c2ccc(=O)c2c(C)oc(C)c32)cc1` (centres unmarked): the “hERG current change (%, negative = inhibition) at 1uM” value was determined as 18.2%. `Cc1ccc(NC(=O)C2Cc3ccccc3O/C2=N\O)cc1C` (centres unmarked): the “hERG current change (%, negative = inhibition) at 1uM” value was found to be 14%. On to `Cc1ccsc1C(=O)N1CCN(c2ncc(C(F)(F)F)cc2Cl)CC1`, for which the “hERG current change (%, negative = inhibition) at 1uM” value turned out to be 13.6%. For `Cc1ccc(OCCn2c(=O)oc3ccc(C)cc32)cc1` the value was 13%.

For `Cc1cc(NC(=O)c2ccoc2C)ccc1Br`, the “hERG current change (%, negative = inhibition) at 1uM” value turned out to be 6.09%. `O=C(CCC1CCCN(C(=O)C2=CCCC2)C1)N1CCN(c2ccccn2)CC1` (centres unmarked): the “hERG current change (%, negative = inhibition) at 1uM” value is reported as 10.9%. On to `O=C(COC(=O)Cc1ccc(F)cc1)Nc1ccc(Cl)cn1`, for which the “hERG current change (%, negative = inhibition) at 1uM” value was 11.1%. For `C[C@H](NC(=O)c1nc[nH]c1C(=O)NC1CCN(C(=O)OC(C)(C)C)CC1)C(=O)OC(C)(C)C` the value was -0.429%; for `C[C@H](OC(=O)N1CCN(C(c2ccccc2)c2ccccc2)CC1)[C@@H]1O[C@@]2(C)CCC[C@H]1O2`, 14.3%; for `COc1ccc(N2C(=O)c3ccccc3NC2c2ccc(OC)c(COc3ccccn3)c2)cc1` (centres unmarked), 7.47%. For `Cc1cc(O)c2c(C)c(CC(=O)N3CCN(C(=O)C4COc5ccccc5O4)CC3)c(=O)oc2c1` (centres unmarked), the “hERG current change (%, negative = inhibition) at 1uM” value came to 12.1%. Consider `Cc1nn(C)cc1CNC(=O)c1cc2n(n1)C(C(F)(F)F)CC(c1cccs1)N2` (centres unmarked), for which the “hERG current change (%, negative = inhibition) at 1uM” value is 2.41%. In the case of `CN(C)c1cccc(C(=O)OC(C(=O)Nc2ccc([N+](=O)[O-])cc2Br)c2ccccc2)c1` (centres unmarked) it was 5%.

Take `CC(NC(=O)/C=C/c1ccco1)c1nc2ccccc2n1Cc1ccccc1F` (centres unmarked): the “hERG current change (%, negative = inhibition) at 1uM” value was 12.7%.

Take `Cc1cc(C)cc(N(CC(=O)Nc2c(C)n(C)n(-c3ccccc3)c2=O)S(C)(=O)=O)c1`: the “hERG current change (%, negative = inhibition) at 1uM” value came out at 13.7%. For `CC1CN(S(=O)(=O)c2ccc(C(=O)Nc3ccc(S(=O)(=O)Nc4ncccn4)cc3)cc2)CC(C)O1` (centres unmarked) the value was 12.9%; for `COC(=O)c1ccc(/C=N/OCC(=O)NC2CCCCCCC2)cc1`, 7.42%; for `CCOC(=O)c1c(C)c(C#N)c2c3ccccc3ccn12`, 11.2%. In the case of `CN(Cc1ccc(Cl)cc1)C(=O)c1cc(S(=O)(=O)N2CCOCC2)ccc1N1CCCC1` it was -28.7%; in that of `CCOC(=O)[C@@H]1[C@H]2COc3ccccc3[C@@H]2N2C(=O)N(c3ccccc3)C(=O)[C@@]12C`, 13%.

For the compound `CC(=O)Oc1ccccc1C(=O)OCCN=C1NS(=O)(=O)c2ccccc21`, the “hERG current change (%, negative = inhibition) at 1uM” value came out at 18.1%. Regarding `COc1ccccc1NC(=O)CN(C)S(=O)(=O)c1ccc(F)cc1`, the “hERG current change (%, negative = inhibition) at 1uM” value was 7.7%. Regarding `O=C(Cc1ccc([N+](=O)[O-])cc1)NC1CCCCCC1`, the “hERG current change (%, negative = inhibition) at 1uM” value was 15.2%. In the case of `CN1C2CCC1CC(NC(=O)c1cccc(C(F)(F)F)c1)C2` (centres unmarked) it was 10.5%.
